# Experimental data: the supplement of paper PMC8728848
# The list shows a part of the results.
# B1: Cohesin-mDCIR (Macaca mulatta) (protein)
# chain: GLDDLDAVRIKVDTVNAKPGDTVRIPVRFSGIPSKGIANCDFVYSYDPNVLEIIEIEPGDIIVDPNPDKSFDTAVYPDRKIIVFLFAEDSGTGAYAITKDGVFATIVAKVKEGAPNGLSVIKFVEVGGFANNDLVEQKTQFFDGGVNVGDTTEPATPTTPVTTPTTTDDLDAASFQKYSQLLEKMTTKDLVHTTLECVKKNMTTEETAWSCCPKNWKPFSSNCYFISTESASWQKSEKDCARMEAHLLVINTREEQDFIFQNLQEESAYFVGLSDPEGQRHWQWVDRTPYNESSTFWHPHEPSDPDERCVVLNFRKTPKRWGWNDVHCIVHQRSVCEMMKIHLHHHHHH
# Tests used:
# Experiment in all cases: glycan array binding signal (z-score within array); higher = stronger binding
# Conditions in all cases: glycan notation: IUPAC condensed, linker removed
# [1] = target: Gal(b1-3)GlcNAc(b1-6)[Gal(b1-3)]GalNAc
# Outline: (§1)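 Glycan array data were curated from 3228 arrays in the Consortium for Functional Glycomics database and kept only where the protein sequence was available. Glycan names were converted to IUPAC-condensed notation, and columns mapping to the same glycan were averaged. The binding signal is a within-array Z-score, averaged across arrays of the same protein sequence at different concentrations or buffers and across linkers. Negative Z-scores can be read as non-binding.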
# Gal(b1-3)GlcNAc6S = target: Gal(b1-3)GlcNAc6S
# Outline: as §1
# [2] = target: Gal(b1-3)[Fuc(a1-4)]GlcNAc
# Outline: as §1
# [3] = target: Gal(b1-3)[Fuc(a1-4)]GlcNAc(b1-2)Man
# Outline: as §1
# [4] = target: Gal(b1-3)[Fuc(a1-4)]GlcNAc(b1-2)Man(a1-3)[Gal(b1-3)[Fuc(a1-4)]GlcNAc(b1-2)Man(a1-6)]Man(b1-4)GlcNAc(b1-4)[Fuc(a1-6)]GlcNAc
# Outline: as §1
# [5] = target: Gal(b1-3)[Fuc(a1-4)]GlcNAc(b1-3)Gal(b1-3)[Fuc(a1-4)]GlcNAc
# Outline: as §1
# [6] = target: Gal(b1-3)[Fuc(a1-4)]GlcNAc(b1-3)Gal(b1-4)[Fuc(a1-3)]GlcNAc
# Outline: as §1
# [7] = target: Gal(b1-3)[Fuc(a1-4)]GlcNAc(b1-6)GalNAc
# Outline: as §1
# [8] = target: Gal(b1-3)[GlcNAc(b1-6)]GalNAc
# Outline: as §1
# [9] = target: Gal(b1-3)[Neu5Ac(a2-6)]GalNAc
# Outline: as §1
# [10] = target: Gal(b1-3)[Neu5Ac(a2-6)]GlcNAc(b1-4)Gal(b1-4)Glc
# Outline: as §1
# [11] = target: Gal(b1-3)[Neu5Ac(b2-6)]GalNAc
# Outline: as §1
# Gal(b1-4)Gal = target: Gal(b1-4)Gal
# Outline: as §1
# [12] = target: Gal(b1-4)GalNAc(a1-3)[Fuc(a1-2)]Gal(b1-4)GlcNAc
# Outline: as §1
# [13] = target: Gal(b1-4)GalNAc(b1-3)[Fuc(a1-2)]Gal(b1-4)GlcNAc
# Outline: as §1
# Gal(b1-4)Glc = target: Gal(b1-4)Glc
# Outline: as §1
# Gal(b1-4)Glc6S = target: Gal(b1-4)Glc6S
# Outline: as §1
# Gal(b1-4)GlcNAc = target: Gal(b1-4)GlcNAc
# Outline: as §1
# [14] = target: Gal(b1-4)GlcNAc(a1-6)Gal(b1-4)GlcNAc
# Outline: as §1
# Gal(b1-4)GlcNAc(b1-2)Man = target: Gal(b1-4)GlcNAc(b1-2)Man
# Outline: as §1
# [15] = target: Gal(b1-4)GlcNAc(b1-2)Man(a1-3)Man(b1-4)GlcNAc(b1-4)GlcNAc
# Outline: as §1
# [16] = target: Gal(b1-4)GlcNAc(b1-2)Man(a1-3)[Gal(b1-4)GlcNAc(b1-2)Man(a1-6)]Man(b1-4)GlcNAc(b1-4)GlcNAc
# Outline: as §1
# [17] = target: Gal(b1-4)GlcNAc(b1-2)Man(a1-3)[Gal(b1-4)GlcNAc(b1-2)Man(a1-6)]Man(b1-4)GlcNAc(b1-4)[Fuc(a1-6)]GlcNAc
# Outline: as §1
# [18] = target: Gal(b1-4)GlcNAc(b1-2)Man(a1-3)[Gal(b1-4)GlcNAc(b1-2)Man(a1-6)][Gal(b1-4)GlcNAc(b1-4)]Man(b1-4)GlcNAc(b1-4)[Fuc(a1-6)]GlcNAc
# Outline: as §1
# [19] = target: Gal(b1-4)GlcNAc(b1-2)Man(a1-3)[Gal(b1-4)GlcNAc(b1-2)Man(a1-6)][GlcNAc(b1-4)]Man(b1-4)GlcNAc(b1-4)[Fuc(a1-6)]GlcNAc
# Outline: as §1
# [20] = target: Gal(b1-4)GlcNAc(b1-2)Man(a1-3)[GlcNAc(b1-2)Man(a1-6)]Man(b1-4)GlcNAc(b1-4)GlcNAc
# Outline: as §1
# [21] = target: Gal(b1-4)GlcNAc(b1-2)Man(a1-3)[GlcNAc(b1-4)][Gal(b1-4)GlcNAc(b1-2)Man(a1-6)]Man(b1-4)GlcNAc(b1-4)GlcNAc
# Outline: as §1
# [22] = target: Gal(b1-4)GlcNAc(b1-2)Man(a1-3)[Man(a1-6)]Man(b1-4)GlcNAc(b1-4)GlcNAc
# Outline: as §1
# [23] = target: Gal(b1-4)GlcNAc(b1-2)Man(a1-6)Man(b1-4)GlcNAc(b1-4)GlcNAc
# Outline: as §1
# [24] = target: Gal(b1-4)GlcNAc(b1-2)Man(a1-6)[GlcNAc(b1-2)Man(a1-3)]Man(b1-4)GlcNAc(b1-4)GlcNAc
# Outline: as §1
# [25] = target: Gal(b1-4)GlcNAc(b1-2)Man(a1-6)[Man(a1-3)]Man(b1-4)GlcNAc(b1-4)GlcNAc
# Outline: as §1
# [26] = target: Gal(b1-4)GlcNAc(b1-2)[Gal(b1-4)GlcNAc(b1-4)]Man(a1-3)[Gal(b1-4)GlcNAc(b1-2)Man(a1-6)]Man(b1-4)GlcNAc(b1-4)GlcNAc
# Outline: as §1
# [27] = target: Gal(b1-4)GlcNAc(b1-2)[Gal(b1-4)GlcNAc(b1-4)]Man(a1-3)[Gal(b1-4)GlcNAc(b1-2)[Gal(b1-4)GlcNAc(b1-6)]Man(a1-6)]Man(b1-4)GlcNAc(b1-4)GlcNAc
# Outline: as §1
# [28] = target: Gal(b1-4)GlcNAc(b1-2)[Gal(b1-4)GlcNAc(b1-4)]Man(a1-3)[GlcNAc(b1-4)][Gal(b1-4)GlcNAc(b1-2)Man(a1-6)]Man(b1-4)GlcNAc(b1-4)GlcNAc
# Outline: as §1
# [29] = target: Gal(b1-4)GlcNAc(b1-2)[Gal(b1-4)GlcNAc(b1-4)]Man(a1-3)[GlcNAc(b1-4)][Gal(b1-4)GlcNAc(b1-2)[Gal(b1-4)GlcNAc(b1-6)]Man(a1-6)]Man(b1-4)GlcNAc(b1-4)GlcNAc
# Outline: as §1
# [30] = target: Gal(b1-4)GlcNAc(b1-2)[Gal(b1-4)GlcNAc(b1-6)]Man(a1-6)[Gal(b1-4)GlcNAc(b1-2)Man(a1-3)]Man(b1-4)GlcNAc(b1-4)GlcNAc
# Outline: as §1
# [31] = target: Gal(b1-4)GlcNAc(b1-2)[Gal(b1-4)GlcNAc(b1-6)]Man(a1-6)[Gal(b1-4)GlcNAc(b1-2)Man(a1-3)]Man(b1-4)GlcNAc(b1-4)[Fuc(a1-6)]GlcNAc
# Outline: as §1
binder,measurement,setting,value
B1,glycan array binding signal (z-score),[1],-0.421
same,glycan array binding signal (z-score),Gal(b1-3)GlcNAc6S,-0.455
same,glycan array binding signal (z-score),[2],-0.093
same,glycan array binding signal (z-score),[3],-0.313
same,glycan array binding signal (z-score),[4],-0.285
same,glycan array binding signal (z-score),[5],4.89
same,glycan array binding signal (z-score),[6],-0.285
same,glycan array binding signal (z-score),[7],-0.084
same,glycan array binding signal (z-score),[8],-0.347
same,glycan array binding signal (z-score),[9],-0.312
same,glycan array binding signal (z-score),[10],-0.388
same,glycan array binding signal (z-score),[11],-0.333
same,glycan array binding signal (z-score),Gal(b1-4)Gal,-0.352
same,glycan array binding signal (z-score),[12],-0.258
same,glycan array binding signal (z-score),[13],-0.103
same,glycan array binding signal (z-score),Gal(b1-4)Glc,-0.246
same,glycan array binding signal (z-score),Gal(b1-4)Glc6S,-0.318
same,glycan array binding signal (z-score),Gal(b1-4)GlcNAc,-0.235
same,glycan array binding signal (z-score),[14],-0.278
same,glycan array binding signal (z-score),Gal(b1-4)GlcNAc(b1-2)Man,-0.029
same,glycan array binding signal (z-score),[15],-0.334
same,glycan array binding signal (z-score),[16],-0.28
same,glycan array binding signal (z-score),[17],-0.178
same,glycan array binding signal (z-score),[18],-0.358
same,glycan array binding signal (z-score),[19],-0.464
same,glycan array binding signal (z-score),[20],-0.027
same,glycan array binding signal (z-score),[21],-0.333
same,glycan array binding signal (z-score),[22],-0.368
same,glycan array binding signal (z-score),[23],-0.323
same,glycan array binding signal (z-score),[24],-0.149
same,glycan array binding signal (z-score),[25],-0.405
same,glycan array binding signal (z-score),[26],-0.445
same,glycan array binding signal (z-score),[27],-0.431
same,glycan array binding signal (z-score),[28],-0.427
same,glycan array binding signal (z-score),[29],-0.417
same,glycan array binding signal (z-score),[30],-0.09
same,glycan array binding signal (z-score),[31],-0.269
